Data as given in PubChem BioAssay AID686970 (National Center for Advancing Translational Sciences (NCATS), 2013).
Screen size: about 360,000 compounds; about 6,000 (1.7%) were called active. The shares of active, inactive and inconclusive entries below differ from those in the screen. Calls follow the shape of the dose curve; as a rule, active = well fitted cell-killing curve with a large enough effect; inconclusive = small, poorly fitted or top-dose-only effect, or effect the other way; inactive = flat fitted curve, though single readings scatter. Potencies of inconclusive entries are left out as doubtful fits.

assay: qHTS for induction of synthetic lethality in tumor cells producing 2HG: qHTS for the HT-1080-NT fibrosarcoma cell line; conditions: HT-1080-NT fibrosarcoma viability, CellTiter-Glo ATP luminescence, 48 h; activity, negative = less viability: at 46.1 µM (top of the series) unless noted;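 also: NT is the 2HG producing partner of a matched IDH1 knockdown line; nearly all actives have a fitted effect of over 55% in size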;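 as to activity, negative = less viability: 0% = DMSO-treated cells and -100% = media-only wells without cells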
Outline: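 HT-1080-NT fibrosarcoma cells (2HG-overproducing), 750 cells/well in RPMI with 5% FBS, dosed after 2 h and incubated 48 h at 37C. CellTiter-Glo luminescence normalized to DMSO and no-cell wells; concentration-response curves fitted and classed.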
Potency is read from the fitted curve at half-maximal effect; tags tell the direction and shape of the fitted curve.

| Structure (SMILES) | activity, negative = less viability | Potency |
| --- | --- | --- |
| Cc1c(Cl)c([N+](=O)[O-])nn1CC(=O)NCc1ccc(Cl)cc1 | inactive: -11.9% |  |
| CCOC(=O)C(=Cc1cc(=O)c(OC)co1)C(=O)OCC |  | active: 11.6 µM |
| CN(C(=S)NC(=O)CCCOc1ccc(Cl)cc1Cl)c1ccccc1 |  | inconclusive [cytotoxic, single point] |
| O=C(NNc1ccccc1)NC(Cc1ccccc1)C(=O)O (stereo unspecified) | inactive: 5.59% |  |
| Oc1ccccc1C1SC(c2ccccc2O)SC(c2ccccc2O)S1 (stereo unspecified) |  | active: 14.6 µM |
| CCCCCCC#Cc1cncc(C(=O)NNC(=O)Nc2cc(Cl)cc(Cl)c2)c1 |  | inconclusive [cytotoxic, partial curve] |
| COc1ccc(C(=O)/C=C\c2ccc(NC(=O)c3cccs3)cc2)cc1 |  | inconclusive [cytotoxic, single point] |
| COc1ccc(C(=O)NC(=S)NNC(=O)c2ccccc2C)cc1 |  | inconclusive [cytotoxic, full curve, poor fit] |
| CC(=O)Nc1ccccc1NC(=O)C/C(C)=N/NC(=O)C1CCCCC1 |  | inconclusive [rising, partial curve, poor fit] |
| CCOC(=O)c1[nH]c(C)c(C(=O)Nc2ccc(C)c(F)c2)c1C |  | active: 10 µM |
| CN1CCN(c2ccc(Cl)cc2NS(=O)(=O)c2ccccc2Cl)CC1 |  | inconclusive [cytotoxic, partial curve] |
| Cc1[nH]c2ccccc2c1/C=N/NC(=O)C1CC1(c1ccccc1)c1ccccc1 (stereo unspecified) |  | inconclusive [cytotoxic, single point] |
| CC1(C)Cc2c(c(-c3ccco3)nc3sc4c(NCC5CCCO5)ncnc4c23)CO1 (stereo unspecified) |  | inconclusive [cytotoxic, full curve] |
| O=C1CC(c2ccc(F)cc2)CC(O)=C1C=NCCN1CCN(C(=O)Nc2ccccc2)CC1 (stereo unspecified) | inactive: 2.91% |  |
| Cc1cc(C)c2c(NC(=S)NC(=O)c3ccccc3)nn(C)c2n1 | inactive: 23.8% |  |
| Cc1cc(OCC(=O)Nc2ccncc2)ccc1Cl | inactive: -12.4% |  |
| O=C(CSc1ccc(Cl)cc1)N1CCN(c2c(Cl)cccc2[N+](=O)[O-])CC1 | inactive: -28.9% |  |
| COc1ccc(C(C(=O)Nc2ccc(F)cc2)N2CCN(c3ccncc3)CC2)cc1 (stereo unspecified) | inactive: -6.31% |  |
| COC(=O)CC1C(=O)NC2CCCCC2N1C(=O)CCl (stereo unspecified) |  | inconclusive [cytotoxic, partial curve, poor fit] |
| CCc1ccc(N2C(=O)C(Cl)=C(Nc3ccc(C(=O)N4CCCC4)cc3)C2=O)cc1 | inactive: -4.48% [at 9.24 µM] |  |
| COc1ccc(-c2sc3ccc(N4CCOCC4)cc3c2C#CCCO)cc1 |  | active: 23.1 µM |
| COc1ccccc1C1CCN(C(=O)c2ccc(C(C)(C)C)cc2)CC1 |  | inconclusive [cytotoxic, single point] |
| CC(=O)Nc1ccc(S(=O)(=O)N[C@@H](C)C(=O)OCC(=O)c2ccc(Br)s2)cc1 | inactive: 7.98% |  |

| Structure (SMILES) | activity, negative = less viability | Potency |
| --- | --- | --- |
| COc1cc2c(c(OC)c1OC)-c1ccc(SC)c(=O)cc1C(NC(=O)C(F)(F)F)CC2 (stereo unspecified) |  | active: 0.0092 µM |
| CCc1ccc(CCC(=O)Nc2ncc(Cc3ccccc3Cl)s2)o1 |  | active: 6.51 µM |
| COc1ccc(CC(N)c2csc(NC(=O)c3ccccc3)n2)cc1 (stereo unspecified) | inactive: -25.3% |  |
| CCCC[n+]1ccn(C2=C([O-])c3ccccc3C(=O)/C2=N\S(=O)(=O)c2ccc(Br)cc2)c1 |  | inconclusive [cytotoxic, single point] |
| Cc1cccc(C)c1OCC(O)CN1CCc2ccccc2C1 (stereo unspecified) |  | inconclusive [cytotoxic, partial curve] |
| C=CCc1ccccc1OCC(O)CNC(C)C (stereo unspecified) | inactive: -16.4% |  |
| C/C(Cl)=C\Cn1c(Nc2ccc(C)cc2)nc2c1c(=O)n(C)c(=O)n2C | inactive: -3.62% |  |
| C=C(C)C(=O)Nc1cccc(C2=NOC3(C2)C[C@H](C(N)=O)N(C(=O)/C=C/C)C3)c1 (stereo partly specified) | inactive: 2.29% |  |
| O=C(Oc1ccc(Br)cc1C(=S)N1CCOCC1)c1ccc([N+](=O)[O-])cc1[N+](=O)[O-] |  | inconclusive [cytotoxic, single point] |
| Cc1cc(OCC(=O)Nc2ccc3oc(-c4ccncc4)nc3c2)ccc1Cl |  | inconclusive [rising, single point] |
| O=C(NNC(=S)Nc1ccc(F)cc1)c1ccccc1OC(F)F |  | inconclusive [cytotoxic, single point] |
| CCCNS(=O)(=O)c1cccc(C(=O)OCc2cc(=O)oc3cc(OC)ccc23)c1 |  | inconclusive [cytotoxic, partial curve] |
| Fc1ccc2[nH]c3c(c2c1)CN(C(=S)NCc1ccccc1)CC3 |  | inconclusive [cytotoxic, single point] |
| CCc1ccc(C2CC(=O)N(c3ccc(F)cc3)C3=C2C(=O)OC3)cc1 (stereo unspecified) | inactive: 5.02% |  |
| Nc1nc2ccc(Cl)cc2cc1C(=O)NCCc1c[nH]c2ccccc12 |  | inconclusive [cytotoxic, single point] |
| CCCCOc1ccc(CC(=O)NO)cc1 |  | inconclusive [cytotoxic, single point] |
| O=C(NCCc1ccccc1)C1Cc2c(-c3ccccc3Oc3ccccc3)ccnc2O1 (stereo unspecified) |  | inconclusive [cytotoxic, single point] |
| COc1ccc(CNC(=O)C2Cc3c(-c4cccc(F)c4)ccnc3O2)cc1OC (stereo unspecified) |  | inconclusive [rising, partial curve] |
| COc1cnc(-c2ccccn2)nc1Sc1ccccc1 |  | inconclusive [cytotoxic, partial curve] |
| CSc1cccc(NC(=O)/C=C/c2ccc(Cl)cc2)c1 |  | inconclusive [cytotoxic, single point] |
| Fc1ccc(NC(=S)Nc2ccc(F)c(Cl)c2)cc1Cl |  | inconclusive [cytotoxic, single point] |
| CC(=O)C1=CCC(c2ccccc2)N(S(=O)(=O)c2cccc(C)c2)C1 (stereo unspecified) |  | inconclusive [cytotoxic, partial curve] |
| CCCCOc1cccc(C(=O)Nc2ccc(NC(=O)c3cccs3)cc2)c1 |  | active: 20.6 µM |
